Numbering of substitutions follows the chain as printed. In names and notes the source's numbering stands.

This test has as its system split intein constructs with short native extein sequences. Kind of test: in vitro protein trans-splicing (PTS) assay, RP-HPLC / ESI-MS kinetics. Type of test: biochemical. The following applies: 30° C., three state kinetic model. From the text: Thus, attention was focused on ‘second shell’ residues, those directly adjacent to the active site. To simplify this analysis, a batch mutagenesis strategy was employed in conjunction with a previously reported in vitro PTS assay.^5 This assay uses split intein constructs with short native extein sequences and allows the rates of branched intermediate formation (k1,k2) and its resolution to final splice products (k3) to be determined using a three state kinetic model.
Splicing reactions were carried out as adapted from a previously described protocol. […] For all splicing reactions containing either Npu^C-CFN or Cfa^C-CFN, reaction progress was monitored by RP-HPLC. […]
Kinetic analysis was carried out as previously described.^1 Briefly, five species (1-5) are separated by RP-HPLC, and peak areas are determined. For ESI-MS, peak areas are calculated for species 1-4. […] Each splicing reaction was carried out in triplicate with each replicate analyzed separately. […]
All splicing reactions comparing Npu and Cfa were separated by RP-HPLC with peak areas once again calculated using the manufacturer's software. For these reactions, peak areas for the starting material and branched intermediate (species 1 and 2) and product (species 3, 4, 5) were calculated. […]

B1: Batch 2: Ssp^N batch mutant (L56F, S70K, A83P, E85D) on chimera 1; plasmid 9, SEQ ID NO: 369 (protein)
chain: MGSSHHHHHHGSGLVPRGSASMSDSEVNQEAKPEVKPEVKPETHINLKVSDGSSEIFFKIKKTTPLRRLMEAFAKRQGKEMDSLRFLYDGIRIQADQTPEDLDMEDNDIIEAHREQIGGAEYCLSFGTEILTVEYGPLPIGKIVSEEINCSVYSVDPEGRVYTQAIAQWHDRGEQEVFEYELEDGSVIRATKDHRFLTTDYQLLPIDEIFARQLDLLTLENIKQTEEALDNHRLPFPLLDAGTIK
For B1, the “rate of branch formation (k1, k2) compared to native Npu” value was “completely restored”.

B2: Batch 1: Ssp^N batch mutant (R73K, L75M, Y79G, L81M) on chimera 1; plasmid 5, SEQ ID NO: 365 (protein)
chain: B1 chain with F178L, K192S, R195K, L197M, Y201G, L203M, P205A, D207E
Regarding B2, the “rate of branch resolution (k3) compared to native Npu” value is listed as “restored the majority”.

For the origin of these results see patent US11142550B2, “Split inteins with exceptional splicing activity” (THE TRUSTEES OF PRINCETON UNIVERSITY, priority 2016, dated 2021).
